From the supplement of paper PMC11876631
Numbering of substitutions follows the chain as printed. Numbers in names are those of the source. ± gives the standard deviation of the averaged measurements. Laboratory Escherichia coli strains with one amino-acid change in an essential protein, pooled on minimal glucose agar with carbenicillin or gentamicin at twice the control MIC (plus kanamycin and chloramphenicol for the plasmids), 48 h. Fold change of barcode share against drug-free plates; higher = less susceptible. Active = above 20 in both replicates (the paper's putatively resistant). '<' = one read or none on drug, '>' = one read or none on a drug-free plate. Shares are relative, so most strains fall below 1 when a few take over. Listed are strains with at least 15 reads on both drug-free plates, and hits; most hits rest on fewer reference reads. Replicate rank correlation about 0.5. Edits are read from barcodes.

B1: kdsB I46Q (protein)
chain: MSFVVIIPARYASTRLPGKPLVDINGKPMIVHVLERARESGAERIQVATDHEDVARAVEAAGGEVCMTRADHQSGTERLAEVVEKCAFSDDTVIVNVQGDEPMIPATIIRQVADNLAQRQVGMATLAVPIHNAEEAFNPNAVKVVLDAEGYALYFSRATIPWDRDRFAEGLETVGDNFLRHLGIYGYRAGFIRRYVNWQPSPLEHIEMLEQLRVLWYGEKIHVAVAQEVPGTGVDTPEDLERVRAEMR
B2: kdsB V83A (protein)
chain: B1 chain with Q46I, V83A
B3: kdsB V83W (protein)
chain: B1 chain with Q46I, V83W
B4: kdsB V83Q (protein)
chain: B1 chain with Q46I, V83Q
B5: kdsB V83D (protein)
chain: B1 chain with Q46I, V83D
B6: kdsB V95A (protein)
chain: B1 chain with Q46I, V95A
B7: kdsB I30A (protein)
chain: B1 chain with I30A, Q46I
B8: leuA I194A (protein)
chain: MSQQVIIFDTTLRDGEQALQASLSVKEKLQIALALERMGVDVMEVGFPVSSPGDFESVQTIARQVKNSRVCALARCVEKDIDVAAESLKVAEAFRIHTFIATSPMHIATKLRSTLDEVIERAIYMVKRARNYTDDVEFSCEDAGRTPIADLARVVEAAINAGATTINIPDTVGYTMPFEFAGIISGLYERVPNADKAIISVHTHDDLGLAVGNSLAAVHAGARQVEGAMNGIGERAGNCSLEEVIMAIKVRKDILNVHTAINHQEIWRTSQLVSQICNMPIPANKAIVGSGAFAHSSGIHQDGVLKNRENYEIMTPESIGLNQIQLNLTSRSGRAAVKHRMDEMGYKESEYNLDNLYDAFLKLADKKGQVFDYDLEALAFIGKQQEEPEHFRLDYFSVQSGSNDIATAAVKLACGEEVKAEAANGNGPVDAVYQAINRITEYNVELVKYSLTAKGHGKDALGQVDIVANYNGRRFHGVGLATDIVESSAKAMVHVLNNIWRAAEVEKELQRKAQHNENNKETV

These proteins were tested against Escherichia coli (laboratory strain) (assay: barcode share on antibiotic plates over drug-free plates; higher = less susceptible). Conditions: antibiotic: carbenicillin; 2× MIC (3.1 µg/mL).
Description: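 A pool of E. coli strains, each edited to carry one amino-acid change in an essential protein, was grown for 48 h on minimal glucose agar with or without antibiotic; strain barcodes were sequenced; mean of two replicates.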

Q: B1 was tested. Which “fold change of barcode share” value did it give?
A: The value was 0.4 ± 0.059.

Q: With B2 as the protein, how does the “fold change of barcode share” value read?
A: The value was 0.354 ± 0.014.

Q: With B3 as the protein, how does the “fold change of barcode share” value read?
A: Its value is 0.287 ± 0.025.

Q: For B4, which “fold change of barcode share” value is on record?
A: The value was 0.287 ± 0.02.

Q: Which “fold change of barcode share” value does the source give for B5 here?
A: The value was 0.422 ± 0.23.

Q: With B6 as the protein, how does the “fold change of barcode share” value read?
A: Its value is 0.704 ± 0.47.

Q: B7 was tested. Which “fold change of barcode share” value did it give?
A: The value was 0.238 ± 0.1.

Q: How did the “fold change of barcode share” value turn out when B8 was run?
A: The value was 0.497 ± 0.11.

Same assay, conditions: antibiotic: gentamicin; 2× MIC (MIC 0.45 µg/mL)

Q: How did the “fold change of barcode share” value turn out when B1 was run?
A: Its value is under 0.0109.

Q: With B2 as the protein, how does the “fold change of barcode share” value read?
A: Its value is under 0.00339.

Q: Which “fold change of barcode share” value does the source give for B3 here?
A: Its value is under 0.00303.

Q: With B4 as the protein, how does the “fold change of barcode share” value read?
A: Its value is 0.00804 ± 0.0042.

Q: B5 was tested. Which “fold change of barcode share” value did it give?
A: The value was 0.122 ± 0.17.

Q: For B6, which “fold change of barcode share” value is on record?
A: Its value is under 0.0062.

Q: Which “fold change of barcode share” value does the source give for B7 here?
A: Its value is under 0.00844.

Q: How did the “fold change of barcode share” value turn out when B8 was run?
A: The value was under 0.00331.
